Out of some 340,000 compounds screened, about 12,000 (3.5%) were called active. Inconclusive results, whose numbers are uncertain, are shown with a selection of clear calls. Calls come from the whole dose curve; as a rule, active = well fitted inhibition curve with a large enough effect; inconclusive = small, poorly fitted or top-dose-only effect, or another doubt; inactive = no such curve, though single readings can be large or run the other way. No potency is given beside an inconclusive call; the fits are too rough.
Assay: qHTS Assay for Inhibitors of Hepatitis C Virus (HCV)
Conditions: Huh7.5.1 HCVcc-Cre (HCVcc is cell-culture hepatitis C virus) infection, luciferase reporter, 44 h; activity change, negative = inhibition: at 41.8 µM (top of the series) unless noted
In short: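 Cells seeded at 1,000/well and cultured 4 h, then compounds added followed by HCVcc-Cre virus (~0.5 moi). After 44 h further culture, luciferase substrate was added, plates held 15 min at room temperature, and luminescence read for 15 sec.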
With `COc1ccc(-c2noc(N3CCC(C(=O)NCCCN4CC(C)CC(C)C4)CC3)n2)cc1` (configuration not stated) the Potency was inconclusive [inhibitor, partial curve].
In the case of `Cc1ccc(C(=O)Oc2cc(N)n(S(=O)(=O)c3ccc(C)cc3)n2)cc1`, the “activity change, negative = inhibition” value is reported as inactive: 4.47%.
In the case of `Cc1cccc(CSc2nnc(N)n2-c2ccccc2)c1`, the “activity change, negative = inhibition” value is reported as inactive: 0.551%.
For `CCN1CCN(c2ccc(S(=O)(=O)N3CCOCC3)cc2NC(=O)c2ccc(Cl)s2)CC1`, the Potency was inconclusive [inhibitor, partial curve].
In the case of `COC(=O)CN1C(=O)C(C)(C)Oc2ccc(C(=O)Nc3cccc(OC)c3)cc21`, the Potency is reported as inconclusive [inhibitor, partial curve, poor fit].
For `COc1ccc(/C=N/Nc2nc(NCc3ccco3)nc(Nc3ccc(OC)cc3)n2)cc1`, the Potency was inconclusive [inhibitor, single point].
In the case of `Cc1cc(C(=O)CSc2nnc(-c3ccco3)o2)c(C)n1-c1ccc2c(c1)OCCO2`, the Potency is reported as active: 12.6 µM.
With `O=C(c1cc(C2CC2)nn1-c1ccccc1)N1CCN(c2ccccc2O)CC1` the “activity change, negative = inhibition” value was inactive: 3.32%.
For `CN1CCN(CC(C)(C)NS(=O)(=O)c2ccccc2)CC1`, the “activity change, negative = inhibition” value was inactive: 2.31%.
With `CNc1nc2c(Cl)cc(Cl)cc2s1` the Potency was inconclusive [inhibitor, single point].
In the case of `CCOC(=O)C1CCN(C(=O)Nc2ccc3nc(-c4ccco4)c(-c4ccco4)nc3c2)CC1`, the Potency is reported as inconclusive [inhibitor, single point].
In the case of `CC(=O)N1CCSc2ccc(S(=O)(=O)NCCc3ccc(C)cc3)cc21`, the Potency is reported as inconclusive [inhibitor, partial curve].
With `COc1ccc(CCn2nnnc2C(C(C)C)N2CCN(c3ncccn3)CC2)cc1OC` (configuration not stated) the Potency was inconclusive [inhibitor, single point].
With `O=C1c2ccccc2S(=O)(=O)c2cc(C(=O)N(c3ccccn3)c3ccccn3)ccc21` the “activity change, negative = inhibition” value was inactive: -4.94%.
For `CCN(C(=O)c1ccco1)C1C2CC3CC(C2)CC1C3` (configuration not stated), the “activity change, negative = inhibition” value was inactive: -1.81%.
For `COc1ccc(C(=O)C2CCCN(Cc3cccn3-c3ccccn3)C2)c(OC)c1` (configuration not stated), the Potency was inconclusive [inhibitor, partial curve].
In the case of `Cc1ccc(OC(=O)CCC(=O)Nc2ccc(C(N)=O)cc2)cc1`, the “activity change, negative = inhibition” value is reported as inactive: 12.5%.
In the case of `CCN1C[C@@H]2[C@@H]3C(=O)N(Cc4ccccc4)C(=O)[C@@H]3[C@](CC)(C1=O)N2C(=O)c1ccc(Cl)c(Cl)c1`, the “activity change, negative = inhibition” value is reported as inactive: 24.9%.
In the case of `COc1ccc(Br)cc1C(=O)Nc1nnn(C)n1`, the Potency is reported as inconclusive [inhibitor, partial curve].
In the case of `CCOC(=O)c1c(NC(=O)c2cccs2)sc2c1CC(C)(C)OC2`, the Potency is reported as active: 7.94 µM.
With `O=C(CSc1nccn1-c1ccccc1)c1ccc(Cl)cc1` the “activity change, negative = inhibition” value was inactive: -3.25%.
For `Clc1cccc(Nc2nc(-c3ccncc3)nc3ccccc23)c1`, the Potency was inconclusive [inhibitor, partial curve].
For `O=C(CN1CCCc2ccccc21)Nc1cc(S(=O)(=O)N2CCCC2)ccc1Cl`, the Potency was inconclusive [inhibitor, partial curve].
In the case of `CCOc1ccc(Cl)cc1CNCCCSc1ncccn1`, the “activity change, negative = inhibition” value is reported as inactive: -9.17%.
In the case of `CCCCCCn1c(O)c(C=NC2CCN(Cc3ccccc3)CC2)c(=O)[nH]c1=O`, the Potency is reported as inconclusive [inhibitor, single point].
With `Cn1cccc1/C=C1\SC(=S)N(Nc2ccccc2)C1=O` the “activity change, negative = inhibition” value was inactive: -25.4%.
For `COc1ccccc1Oc1ccc(S(=O)(=O)NCc2ccccn2)cc1`, the Potency was inconclusive [inhibitor, partial curve].
For `CC(=O)Nc1ccc(NC(=O)c2ccccc2CCc2ccccc2)cc1`, the “activity change, negative = inhibition” value was inactive: 19.6%.
For `CC(C)(C)CN1CCNC[C@H]1Cc1cccc2ccccc12`, the Potency was inconclusive [inhibitor, single point].
For `Cn1cc(/C=N/NC(N)=S)c2ccccc21`, the “activity change, negative = inhibition” value was inactive: 12.1%.
With `O=[N+]([O-])c1cccc(NC(=S)N2CCc3ccccc3C2)c1` the Potency was inconclusive [inhibitor, partial curve].
For `Cc1ccc(NC(=O)COC(=O)c2oc3ccccc3c2C)cc1S(=O)(=O)N1CCOCC1`, the Potency was inconclusive [inhibitor, single point].
In the case of `O=C(NC(=S)NNS(=O)(=O)c1ccccc1)c1cccnc1`, the “activity change, negative = inhibition” value is reported as inactive: 3.78%.
With `Cc1ccc2ncnc(Oc3ncccc3NC(=O)C(C)(C)C)c2c1` the “activity change, negative = inhibition” value was inactive: 11.3%.
With `COC(=O)CCCn1nc(NC(=O)c2ccco2)cc1C` the “activity change, negative = inhibition” value was inactive: 9.42%.
In the case of `CCOC(=O)C(=O)C1=C(N2CCOCC2)/C(=C\c2ccc(F)cc2)CC1`, the Potency is reported as inconclusive [inhibitor, partial curve].
With `COC(=O)c1ccc(NC(=O)c2ccc(NC(=O)c3ccco3)cc2)cc1` the Potency was inconclusive [inhibitor, single point].
With `COc1cc(OC)cc(C(=O)Nc2ccc(-c3nc4ccccc4o3)c(O)c2)c1` the Potency was inconclusive [inhibitor, full curve, poor fit].
In the case of `O=C1c2cccnc2Oc2ccc(Cl)cc2N1Cc1ccc(F)cc1`, the “activity change, negative = inhibition” value is reported as inactive: 8.84%.
For `O=C(Nc1ccccc1F)c1cc(S(=O)(=O)N2CCOCC2)ccc1N1CCOCC1`, the “activity change, negative = inhibition” value was inactive: 15.7%.
With `CCn1c(SCC(=O)c2ccc(Cl)cc2)nnc1-c1ccoc1C` the Potency was inconclusive [inhibitor, single point].
With `Cc1occc(=O)c1OC(=O)Nc1ccc(Cl)c(Cl)c1` the Potency was inconclusive [inhibitor, single point].
With `CCOC(=O)N1CCN(C(=S)NC(=O)c2ccc(F)c(F)c2)CC1` the “activity change, negative = inhibition” value was inactive: 25.8%.
With `CCOc1ccc(C(c2c(O)nc(SC)[nH]c2=O)c2c(O)nc(SC)[nH]c2=O)cc1` the “activity change, negative = inhibition” value was inactive: 9.01%.
With `O=S(=O)(NC1CCCC1)OCC(Cl)(Cl)Cl` the Potency was active: 0.316 µM.
With `COc1ccc(NC(C)=O)cc1NC(=O)c1cccc(S(=O)(=O)N2CCN(Cc3ccccc3)CC2)c1` the “activity change, negative = inhibition” value was inactive: -23.7%.
With `COC1=CC(=O)c2c(ccc3ncnc(N)c23)C1=O` the Potency was inconclusive [inhibitor, full curve].
With `COc1cc(C(=O)OCCC(C)C)cc(OC)c1O` the Potency was inconclusive [inhibitor, single point].
In the case of `Cc1ccc(Nc2nnc(SCC(=O)NCCN3C(=O)CSC3=O)s2)cc1`, the “activity change, negative = inhibition” value is reported as inactive: 2.27%.
For `O=C(N/N=C\c1cn(-c2ccccc2)nc1-c1ccccc1)c1ccc2c(c1)OCO2`, the Potency was active: 12.6 µM.
In the case of `CC(=O)Nc1cc2c(cc1Cl)-c1ccccc1C2`, the Potency is reported as inconclusive [inhibitor, single point].
With `Cc1sc2ncnc(N3CCC(C(=O)Nc4cc(S(C)(=O)=O)ccc4Cl)CC3)c2c1C` the Potency was inconclusive [inhibitor, partial curve].
In the case of `CCOC(=O)N1CCC(n2c(SCC(=O)NCc3ccco3)nc3ccsc3c2=O)CC1`, the Potency is reported as inconclusive [inhibitor, partial curve].
With `O=C1CN(C(=O)COc2ccc(F)cc2Cl)c2ccccc2N1` the Potency was inconclusive [inhibitor, single point].
In the case of `CCCCCCCCOC(=O)c1cc([N+](=O)[O-])c(Sc2ncnc3nc[nH]c23)c([N+](=O)[O-])c1`, the “activity change, negative = inhibition” value is reported as inactive: 9.52%.
For `O=C(Nc1cccnc1Cl)c1ccc(S(=O)(=O)N2CCCCCC2)cc1`, the Potency was inconclusive [inhibitor, full curve].
In the case of `Cc1ccc(NC(=O)NCCCN2CCCC2=O)cc1C`, the “activity change, negative = inhibition” value is reported as inactive: -3.95%.
With `CCN(C(=O)COC(=O)c1c(NC(C)=O)sc(C)c1C)C1CCS(=O)(=O)C1` (configuration not stated) the Potency was inconclusive [inhibitor, full curve].
For `COc1ccc(C(=O)OCC(=O)Nc2ccc(OC)c(S(=O)(=O)N3CCCCC3)c2)cc1[N+](=O)[O-]`, the Potency was inconclusive [inhibitor, partial curve, poor fit].
With `COc1ccc(CN(C2CCCC2)S(=O)(=O)c2ccc(-n3cnnn3)cc2)cc1OC` the Potency was inconclusive [inhibitor, single point].
In the case of `COC(=O)[C@]1(Cc2ccccc2)N[C@H](CN(C)S(=O)(=O)c2ccc(C)cc2)[C@@H]2C(=O)N(Cc3ccccc3)C(=O)[C@@H]21`, the Potency is reported as inconclusive [inhibitor, full curve].
With `CC1(C(=O)N/N=C/c2ccccc2)CC1(Br)Br` (configuration not stated) the “activity change, negative = inhibition” value was inactive: 18.3%.
In the case of `CCOc1ccccc1C1C(C#N)=C(N)Oc2cc(C)n(Cc3ccccn3)c(=O)c21` (configuration not stated), the “activity change, negative = inhibition” value is reported as inactive: -2.74%.
In the case of `Cc1c(NC(=O)/C(C#N)=C/c2ccc(-c3ccc(Cl)cc3)o2)c(=O)n(-c2ccccc2)n1C`, the Potency is reported as inconclusive [inhibitor, partial curve].
In the case of `CCOc1ccc(-n2c(SCC(=O)Nc3ccc4c(c3)OCO4)nc3ccccc3c2=O)cc1`, the Potency is reported as inconclusive [inhibitor, single point].
With `CC(C)C(=O)Nc1nc(-c2ccc3c(c2)CCN3C(=O)C2CC2)cs1` the Potency was inconclusive [inhibitor, partial curve, poor fit].
In the case of `COc1cc(N=Cc2c(O)c3ccccc3oc2=O)c(OC)cc1Cl`, the Potency is reported as inconclusive [inhibitor, single point].
In the case of `COc1ccc(C(=O)N(C)c2c(C)n(C)n(-c3ccccc3)c2=O)cc1OC`, the “activity change, negative = inhibition” value is reported as inactive: 9.15%.
With `O=C(c1cc(-c2ccc(Cl)s2)nc2ccccc12)N1CCOCC1` the Potency was inconclusive [inhibitor, full curve].
With `Cc1ccc(CNC(=O)C2c3ccccc3C(=O)N(C)C2c2c[nH]c3ccccc23)o1` (configuration not stated) the Potency was inconclusive [inhibitor, full curve].
For `O=C(/C=C/c1ccc(Br)o1)OCc1ccccc1`, the “activity change, negative = inhibition” value was inactive: 12.5%.
In the case of `CCc1ccc(C(=O)CCC(=O)Nc2ccc(OC)c(S(=O)(=O)N3CCCCC3)c2)cc1`, the Potency is reported as inconclusive [inhibitor, full curve].
% is set by controls: 0 for no effect and ±100 for the full control effect; potency is the fitted concentration of half-maximal effect; tags give direction and shape of the fitted curve.
